Measured values from the antibiotic and cytotoxicity screens of Wong et al. (2023).
This is one part of the list.

The compounds below were run on HepG2 (assay: cytotoxicity call (relative viability < 0.9)). Conditions: 10 µM.

Row | SMILES | cytotoxicity call
1 | C[C@@H]1CN([C@H](C)CO)C(=O)c2cc(NC(=O)Nc3ccc(F)cc3)ccc2O[C@@H]1CN(C)S(=O)(=O)c1cn(C)cn1 | inactive
2 | C[C@H](CO)N1C[C@H](C)[C@@H](CN(C)Cc2ccc(Oc3ccccc3)cc2)Oc2ccc(NC(=O)NC3CCCCC3)cc2CC1=O | inactive
3 | Cc1ccc(S(=O)(=O)N[C@@H](Cc2ccccc2)C(=O)NCCCn2cc(-c3ccccc3N)nn2)cc1 | inactive
4 | Cc1noc(C)c1NC(=O)Nc1ccc2c(c1)C(=O)N([C@@H](C)CO)C[C@H](C)[C@H](CN(C)Cc1ccc3c(c1)OCO3)OCCCC[C@@H](C)O2 | inactive
5 | Cn1ncc2c(N3CCCC3)ncnc21 | inactive
6 | Cc1ccc(S(=O)(=O)Nc2ccc3c(c2)C(=O)N([C@H](C)CO)C[C@H](C)[C@@H](CN(C)C(=O)CCC(F)(F)F)OCCCC[C@H](C)O3)cc1 | inactive
7 | C[C@H]1CCCCO[C@H](CN(C)C(=O)Nc2ccc(C(F)(F)F)cc2)[C@@H](C)CN([C@@H](C)CO)C(=O)c2cc(NC(=O)Nc3ccc(F)cc3)ccc2O1 | inactive
8 | C[C@H](CO)N1C[C@H](C)[C@H](CN(C)Cc2ccc(Oc3ccccc3)cc2)Oc2ccc(NC(=O)CCC(F)(F)F)cc2CC1=O | active
9 | CO[C@@H](CN(C)S(=O)(=O)c1cccc(Cl)c1)[C@H](C)CN([C@H](C)CO)S(=O)(=O)c1ccc(Cl)cc1 | inactive
10 | O=C(NC1CC1)[C@@H]1c2ccccc2C(=O)N(Cc2cc(F)cc(C(F)(F)F)c2)[C@H]1c1ccc(CO)cc1 | inactive
11 | Cc1ccc(S(=O)(=O)Nc2ccc3c(c2)C(=O)N([C@H](C)CO)C[C@@H](C)[C@H](CN(C)Cc2ccc(Oc4ccccc4)cc2)O3)cc1 | active
12 | COCCNC(=O)C[C@@H]1C[C@H]2c3cc(NC(=O)Nc4ccc(C(F)(F)F)cc4)ccc3O[C@H]2[C@H](CO)O1 | inactive

These compounds were tested on S. aureus RN4220 (assay: growth inhibition call (relative growth <= 0.2)). Conditions: 50 µM.

Row | SMILES | growth inhibition call
13 | C[C@H]1CN([C@@H](C)CO)C(=O)c2cc(NS(C)(=O)=O)ccc2O[C@H]1CN(C)S(=O)(=O)c1cccs1 | inactive
14 | C[C@@H]1CCCCO[C@@H](CN(C)Cc2ccccc2)[C@H](C)CN([C@H](C)CO)C(=O)c2cc(NC(=O)NC3CCCCC3)ccc2O1 | inactive
15 | Cc1ccc(S(=O)(=O)Nc2ccc3c(c2)C(=O)N([C@H](C)CO)C[C@@H](C)[C@H](CN(C)C(=O)Nc2cccc4ccccc24)OCCCC[C@H](C)O3)cc1 | inactive
16 | N=C(N)SCCN1C(=O)c2ccccc2C1=O | inactive
17 | C[C@H]1CN([C@@H](C)CO)C(=O)Cc2cc(NS(=O)(=O)c3ccccc3)ccc2O[C@H]1CN(C)S(=O)(=O)c1ccc(F)cc1 | inactive
18 | C[C@H](CO)N1C[C@H](C)[C@@H](CN(C)C(=O)Nc2ccccc2)OCCCC[C@H](C)Oc2ccc(NC(=O)CCC(F)(F)F)cc2C1=O | inactive
19 | Cc1ccc(S(=O)(=O)Nc2ccc3c(c2)CC(=O)N([C@@H](C)CO)C[C@H](C)[C@@H](CN(C)S(=O)(=O)c2ccc(F)cc2)O3)cc1 | inactive
20 | Cc1ccc(S(=O)(=O)Nc2ccc3c(c2)C(=O)N([C@H](C)CO)C[C@@H](C)[C@H](CN(C)S(=O)(=O)c2ccc(F)cc2)OCCCC[C@@H](C)O3)cc1 | inactive
21 | C[C@@H]1CN([C@@H](C)CO)C(=O)c2cc(NS(C)(=O)=O)ccc2O[C@@H]1CN(C)C(=O)Nc1ccc2c(c1)OCO2 | inactive
22 | C[C@H]1CN([C@@H](C)CO)C(=O)c2cc(NS(=O)(=O)c3cn(C)cn3)ccc2O[C@@H]1CN(C)CC1CC1 | inactive
23 | C=CCN1C(=O)[C@@]2(O[C@@H](CCO)[C@H]([Si](C)(C)c3ccc(OC)cc3)[C@H]2C)c2cc(N3C(=O)c4cccc5cccc3c45)ccc21 | inactive
24 | C[C@H]1CN([C@@H](C)CO)C(=O)Cc2cc(NC(=O)c3ccncc3)ccc2O[C@@H]1CN(C)S(=O)(=O)c1ccccc1 | inactive
25 | CO[C@H](C(=O)N(C)C[C@@H]1OCc2ccccc2-c2c(n(C)c3ccccc23)C(=O)N([C@H](C)CO)C[C@H]1C)c1ccccc1 | inactive
26 | C[C@@H]1CN([C@H](C)CO)C(=O)c2cccc(NC(=O)C3CC3)c2O[C@H]1CN(C)C(=O)NC1CCCCC1 | inactive
27 | C[C@@H]1CN([C@H](C)CO)C(=O)c2cccc(NC(=O)c3ccncc3)c2O[C@H]1CN(C)S(=O)(=O)c1cn(C)cn1 | inactive
28 | CC(C)NC(=O)N(C)C[C@H]1OCCCC[C@H](C)Oc2ccc(NS(=O)(=O)c3cn(C)cn3)cc2C(=O)N([C@@H](C)CO)C[C@H]1C | inactive
